Among all 120,000 compounds or so, about 5,300 (4.4%) were called active. This list was built around the results that the source calls inconclusive (neither active nor inactive); the mix of calls is not that of the screen. Calls follow the shape of the dose curve; as a rule, active = well fitted inhibition curve with a large enough effect; inconclusive = small, poorly fitted or top-dose-only effect; inactive = no such curve, though single readings can be large or run the other way. A potency beside an inconclusive call is a rough fit, not a confirmed value.
assay: qHTS Primary assay for Inhibitors of Plasmodium falciparum Dd2 growth in vitro; also: nearly all actives have a fitted effect of over 65% in size;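 as to activity, negative = inhibition: plate controls were DMSO vehicle for no effect and reference drug for full effect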; details: P. falciparum Dd2 growth, SYBR Green, 72 h; activity, negative = inhibition: at 28.9 µM (top of the series) unless noted; series mostly up to 28.9 µM
Procedure, shortened: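 Infected erythrocytes (Dd2, 0.3% parasitemia, 2.5% hematocrit final) are added to compound in RPMI-1640/Albumax II medium, grown 72 h at 37C in low oxygen, then lysed with saponin/Triton-X containing SYBR Green and read by fluorescence.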
Potency is read from the fitted curve at half-maximal effect; tags tell the direction and shape of the fitted curve.

| SMILES | Potency | outcome | activity, negative = inhibition |
| --- | --- | --- | --- |
| COC(=O)[C@@H]1Cc2ncn(Cc3ccc(OC)cc3)c2CN1C(=O)CC(C)(C)C | inconclusive: 31.6 µM [inhibitor, single point] |  |  |
| Cc1ccc(CNC(=O)CN2CCN(Cc3ccc(F)cc3Cl)C2=O)cc1 | inconclusive: 0.224 µM [inhibitor, full curve, poor fit] |  |  |
| CCc1ccc(S(=O)(=O)c2cn(CC)c3cc(N4CCCCC4)c(F)cc3c2=O)cc1 | inconclusive: 7.08 µM [inhibitor, partial curve] |  |  |
| COc1cccc(S(=O)(=O)N2CC(N(C3CCOCC3)S(C)(=O)=O)C2)c1 | inconclusive: 8.91 µM [inhibitor, partial curve, poor fit] |  |  |
| Cc1nn(-c2ccc(C(C)C)cc2)c(C)c1[C@@H]1C=C[C@@H](NC(=S)NCC(C)C)C1 | active: 12.6 µM |  |  |
| Cc1nn2c(c1-c1ccccc1Oc1ccccc1)N(C(=O)c1ccccc1)CCC2 |  | inactive [at 44.1 µM] |  |
| Cc1ccc(NC(=O)Cn2c(N3CCN(c4ccccc4)CC3)nc(C)cc2=O)c(C)c1 |  |  | inactive: -8.3% |
| COC(=O)C1=C(C)N=C2SC=C(CC(=O)NCC3CCCO3)N2C1c1ccccc1OC (configuration not stated) |  |  | inactive: -3.31% |
| CN1C[C@@H](NC(=O)CC(C)(C)C)C[C@H]1c1nc(-c2ccc(OC(F)(F)F)cc2)no1 | inconclusive: 0.251 µM [inhibitor, full curve] |  |  |
| Cc1ccc(-n2c(=O)c3c(C)c(C)sc3n(Cc3ccc(F)cc3Cl)c2=O)cc1C |  | inactive |  |
| Cc1cnn(CCC(=O)N2CCC3(CC2)CN(Cc2ccccc2)CC3CO)c1 (configuration not stated) |  | inactive |  |
| N#Cc1nc(/C=C/c2ccc(F)cc2)oc1NCc1ccc(F)cc1 |  |  | inactive: -2.83% |
| Cc1ccc(C(=O)N2CCC3(CC2)N=C(c2ccc(Cl)cc2)NO3)cc1 |  | inactive |  |
| O=C(NCCC1CCN(C(=O)Nc2cc(F)cc(F)c2)CC1)c1ccc2nc[nH]c2c1 | inconclusive: 17.8 µM [inhibitor, single point] |  |  |
| CC(C)Cc1noc(CN(C)C(=O)c2cc(C(C)C)n3ncnc3n2)n1 |  |  | inactive: -4.25% |
| CO[C@H]1C(=O)N(C(C)C)[C@H]1C1CCN(Cc2ccc3cc[nH]c3c2)CC1 | inconclusive: 11.2 µM [inhibitor, single point] |  |  |
| Cc1cccc(Cn2nnc3c(=O)[nH]c(C4CCCN(C(=O)c5ccccc5Cl)C4)nc32)c1 (configuration not stated) | inconclusive: 10 µM [inhibitor, single point] |  |  |
| O=C(c1ccc2c(c1)N(Cc1cccc(Cl)c1)C(=O)c1ccccc1S2=O)N1CCN(c2cccc(C(F)(F)F)c2)CC1 (configuration not stated) | inconclusive: 12.6 µM [inhibitor, single point] |  |  |
| Cc1ccc(NC(=O)Cn2c(N3CCOCC3)nc(C)cc2=O)c(Cl)c1 | inconclusive: 5.01 µM [inhibitor, partial curve, poor fit] |  |  |
| NCC(=O)N1CCc2nc(-c3ccco3)nc(N3CC=CCC3)c2CC1 | inconclusive: 8.91 µM [inhibitor, single point] |  |  |
| Cc1ccc(CN2CCCC(c3nn(-c4ccc(Cl)cc4)c(=O)[nH]3)C2)cc1 (configuration not stated) | inconclusive: 11.2 µM [inhibitor, single point] |  |  |

| SMILES | Potency | outcome | activity, negative = inhibition |
| --- | --- | --- | --- |
| CC1=C(C(=O)Nc2ccc(C)cc2C)C(c2ccc(Br)cc2)n2ncc(C(=O)Nc3cccc(C)c3)c2N1 (configuration not stated) | active: 1.12 µM |  |  |
| COc1ccccc1-c1nn2c(=O)cc(CN3CCN(C(=O)/C=C/c4ccccc4)CC3)nc2s1 | inconclusive: 10 µM [inhibitor, single point] |  |  |
| CC(C)CCN1CCC2(CC1)C(=NC1CCCCC1)NC(=O)N2c1cc(F)cc(F)c1 | inconclusive: 12.6 µM [inhibitor, single point] |  |  |
| CCOc1ccccc1CN1C[C@@H]2C(=O)N(Cc3ccc4c(c3)OCO4)C(=O)[C@@H]2C1 | inconclusive: 8.91 µM [inhibitor, single point] |  |  |
| COCC(=O)N1CCC(N2C(=O)C3(CCCCC3)C2c2ccccc2)CC1 (configuration not stated) |  |  | inactive: -29.5% |
| Cc1noc(C)c1-c1cc2c(cc(C)n2C)c(-c2cnn(C)c2)n1 | inconclusive: 0.316 µM [inhibitor, partial curve, poor fit] |  |  |
| Cc1c(Cl)cccc1Nc1nn2c(=O)c3ccc(C(=O)NCCC4=CCCCC4)cc3nc2s1 | active: 3.98 µM |  |  |
| COc1ccc(S(=O)(=O)c2nnn(-c3ccc(C(C)C)cc3)c2C)cc1 | inconclusive: 10 µM [inhibitor, single point] |  |  |
| CCNC(=O)[C@@H]1C[C@H](NC(=O)c2cccc(Cl)c2)CN1C1CCOCC1 |  |  | inactive: -8.97% |
| c1ccc(-c2nc(-c3cnccn3)no2)c(OC2CNC2)c1 |  |  | inactive: -16.4% |
| OCC1(Cc2ccc(Cl)cc2)CCNCC1 |  |  | inactive: -19.2% |
| CCc1ccc(S(=O)(=O)NCc2nc3cccnc3n2Cc2cccc(OC)c2)cc1 |  |  | inactive: -18.1% |
| CCOc1ccc(NC(=O)Cn2c(=O)n(CCCCC(=O)NCc3ccc4c(c3)OCO4)c(=O)c3ccccc32)cc1 | inconclusive: 3.55 µM [inhibitor, full curve, poor fit] |  |  |
| CCN(CC)c1ccc(-n2nc3cc(C)c(NC(=O)c4ccccc4C)cc3n2)c(C)c1 | inconclusive: 11.2 µM [inhibitor, single point] |  |  |
| O=C1CCN(Cc2cccnc2)CCCC(C(=O)Nc2ccccc2)CCN1 (configuration not stated) | inconclusive: 7.94 µM [inhibitor, single point] |  |  |
| COC1CN(c2ccc(C)cc2)C12CCN(C(=O)Cc1ccccc1)CC2 (configuration not stated) | inconclusive: 0.631 µM [inhibitor, partial curve, poor fit] |  |  |
| CN1CCc2c([nH]c3ccccc23)C12CCN(C(=O)c1ccccc1)CC2 | inconclusive: 17.8 µM [inhibitor, single point] |  |  |
| Cc1cc(=O)n(CC(=O)Nc2ccccc2)c(-c2ccccc2)n1 | inconclusive: 15.8 µM [inhibitor, single point] |  |  |
| CC(C)CCNC(=O)c1cnc2n1CCN(CCCc1ccccc1)CC2 | inconclusive: 31.6 µM [inhibitor, single point] |  |  |
| O=C(NCC1CC1)c1cn(C2CNC2)nn1 | inconclusive: 3.98 µM [inhibitor, partial curve, poor fit] |  |  |
| Cc1cc(C(F)(F)F)nc(CCNC(=O)c2cn(CCCc3ccccc3)nn2)n1 |  |  | inactive: -1.43% |

Reference: PubChem BioAssay AID1347417 (National Center for Advancing Translational Sciences (NCATS), 2020)
